Hit rate of the full screen: of about 410,000 compounds, about 6,400 (1.6%) were called active. The inconclusive results got no clear call from the source; some entries with a clear call stand among them for comparison. Calls follow the shape of the dose curve; as a rule, active = well fitted inhibition curve with a large enough effect; inconclusive = small, poorly fitted or top-dose-only effect; inactive = no such curve, though single readings can be large or run the other way. Potencies of inconclusive entries are left out as doubtful fits.
target: Glucagon-like peptide 1 receptor (Homo sapiens) (UniProt P43220); experiment: qHTS of GLP-1 Receptor Inverse Agonists (Inhibition Mode); details: HEK293 GLP-1R CRE-luciferase, luminescence, 24 h, GLP-1R form is constitutively active; activity change, negative = inhibition: at 38.3 µM (top of the series) unless noted; also: nearly all actives have a fitted effect of over 55% in size
How it was run: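 Seeding at 200 cells/uL, 12 h culture, 24 hr compound treatment, then luciferase reagent and a luminescence read; cells are HEK293 stably expressing a constitutively active GLP-1R plus cAMP-responsive luciferase.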
% is scaled to controls: 0 for no effect and ±100 for the full control effect; potency is read from the fitted curve at half-maximal effect; tags tell the direction and shape of the fitted curve.

Sequence of UniProt P43220 (P43220 whole entry, looked up): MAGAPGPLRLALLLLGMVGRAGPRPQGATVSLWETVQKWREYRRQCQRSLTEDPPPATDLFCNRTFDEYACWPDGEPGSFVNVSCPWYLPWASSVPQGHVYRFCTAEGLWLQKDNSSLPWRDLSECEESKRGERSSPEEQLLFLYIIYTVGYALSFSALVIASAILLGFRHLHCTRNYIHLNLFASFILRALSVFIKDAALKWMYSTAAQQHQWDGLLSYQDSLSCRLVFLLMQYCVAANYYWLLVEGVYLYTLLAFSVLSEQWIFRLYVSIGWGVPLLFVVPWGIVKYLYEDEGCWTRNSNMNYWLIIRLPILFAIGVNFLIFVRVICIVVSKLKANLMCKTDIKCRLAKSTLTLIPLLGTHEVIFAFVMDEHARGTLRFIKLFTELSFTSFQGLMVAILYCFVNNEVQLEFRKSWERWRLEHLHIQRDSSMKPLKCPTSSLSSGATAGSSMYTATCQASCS

Row | Compound | Potency | activity change, negative = inhibition
1 | Cc1cc(N/N=C/c2cccc([N+](=O)[O-])c2)nc(-n2nc(C)cc2C)n1 | inconclusive [inhibitor, partial curve, poor fit] | 
2 | COc1cccc(-c2nc(SCC(=O)Nc3ccc4c(c3)OCO4)c(-c3ccccc3)[nH]2)c1 | inconclusive [inhibitor, partial curve, poor fit] | 
3 | Cc1ccc(S(=O)(=O)N2CCCN(S(=O)(=O)c3ccccc3Br)CC2)cc1 | inconclusive [inhibitor, partial curve, poor fit] | 
4 | COC(=O)CNC(c1ccccc1)c1cc(Br)ccc1NC(C)=O (centres undefined) |  | inactive: 2.68%
5 | CC(C)(C)c1ccc(OCCCNCc2ccccc2)cc1 | inconclusive [inhibitor, partial curve, poor fit] | 
6 | COc1ccc(NC(=O)c2cc(C3CCCCN3S(=O)(=O)c3c(C)noc3C)on2)c(C)c1 (centres undefined) | inconclusive [inhibitor, single point] | 
7 | CCc1ccc(N=c2c([N+](=O)[O-])nn(-c3ccc4c(c3)OCCO4)n2O)cc1 |  | inactive: 41.1%
8 | CCCc1noc(-c2ccc(N3CCCCC3)c([N+](=O)[O-])c2)n1 | inconclusive [inhibitor, partial curve, poor fit] | 
9 | CC(=NNC(=O)Cn1ccc(C(F)(F)F)n1)c1ccc(-n2ccnc2)cc1 | inconclusive [inhibitor, full curve, poor fit] | 
10 | CCOc1ccc(S(=O)(=O)N2CCC(C(=O)N3CCc4ccccc4C3)CC2)cc1 | inconclusive [inhibitor, partial curve] | 
11 | Cc1ccc(-c2nnn(CC(=O)N(Cc3ccco3)C(C(=O)NC3CCCC3)c3cccs3)n2)o1 (centres undefined) | inconclusive [inhibitor, full curve] | 
12 | O=C(NCN1C(=O)C2C3C=CC(C3)C2C1=O)OC1CCCCC1 (centres undefined) |  | inactive: 0.938%
13 | CC(C)(CNCc1ccccc1)NS(=O)(=O)c1ccc(Cl)cc1 | inconclusive [inhibitor, partial curve, poor fit] | 
14 | CC(C)NS(=O)(=O)c1ccc(Br)c(C(=O)OC(C)C(=O)NC2CCCCC2C)c1 (centres undefined) | inconclusive [inhibitor, partial curve, poor fit] | 
15 | COc1c2ccoc2c(OC[C@@H](O)C(C)(C)O)c2oc(=O)ccc12 |  | inactive: -0.829%
16 | Cn1nc(C(=O)NCc2ccccc2)c2c1-c1ccccc1SC2 | inconclusive [inhibitor, single point] | 
17 | CN(CC(=O)NCCCc1ccccc1)S(=O)(=O)c1ccc(Br)cc1 | inconclusive [inhibitor, single point] | 
18 | CCOC(=O)c1sc2ccccc2c1S(=O)(=O)Nc1c(C)cccc1C | inconclusive [inhibitor, single point] | 
19 | CC(=O)N1N=C(c2c(-c3ccccc3)c3cc(Br)ccc3[nH]c2=O)CC1c1ccco1 (centres undefined) | inconclusive [inhibitor, single point] | 
20 | Nc1ccn([C@@H]2O[C@H](CO)[C@@H](O)[C@@H]2O)c(=O)n1 | inconclusive [inhibitor, full curve, poor fit] | 

Row | Compound | Potency | activity change, negative = inhibition
21 | Cc1ccccc1-n1nnnc1SC(C)C(=O)Nc1ccc(N2CCN(C)CC2)cc1 (centres undefined) | inconclusive [inhibitor, full curve] | 
22 | Cc1nc(C(=O)NCc2ccccc2)sc1C1(C)CC(c2cccc([N+](=O)[O-])c2)=NO1 (centres undefined) | inconclusive [inhibitor, single point] | 
23 | COc1ccc(N(CCOc2ccccc2)S(=O)(=O)c2ccccc2)cc1 | inconclusive [inhibitor, partial curve, poor fit] | 
24 | Cc1ccc(CN2CCN(/N=C/c3cccs3)CC2)cc1 | inconclusive [inhibitor, partial curve] | 
25 | O=C1c2ccccc2S(=O)(=O)N1CC1CC(c2ccc(Cl)cc2)=NO1 (centres undefined) |  | inactive: 3.83%
26 | COc1ccc(S(=O)(=O)NCCSCc2ccc(Cl)cc2)cc1NC(C)=O | inconclusive [inhibitor, single point] | 
27 | Cc1ccc(-c2cnc(C(O)c3cc(Cl)cc(Cl)c3)[nH]2)cc1 (centres undefined) | inconclusive [inhibitor, single point] | 
28 | N#Cc1ccc(-c2ccc(OCC(O)CN3CCCCC3)cc2)cc1 (centres undefined) | inconclusive [inhibitor, partial curve, poor fit] | 
29 | Cc1ccc(C2=[N+]([O-])C3(CCCCC3=O)N(O)C2(C)C)cc1 (centres undefined) |  | inactive: 10.3%
30 | COc1ccc(Cn2c(=O)c3c(nc(NCCO)n3C)n(C)c2=O)cc1 |  | inactive: 65.5%
31 | O=C(C1Cc2ccccc2CN1S(=O)(=O)c1ccc(F)cc1)N1CCCCC1 (centres undefined) | inconclusive [inhibitor, single point] | 
32 | CC(C)(C)c1ccc(CC(=O)N2CCC2(C)C(=O)NCc2ccc3c(c2)OCO3)cc1 (centres undefined) | inconclusive [inhibitor, partial curve, poor fit] | 
33 | O=C(/C(=C/c1ccncc1)n1ccnc1)c1ccc(Cl)cc1Cl | inconclusive [inhibitor, single point] | 
34 | COc1ccc(Cl)cc1NC(=O)COC(=O)c1c(-c2ccccc2)noc1C | inconclusive [inhibitor, single point] | 
35 | O=S(=O)(Nc1ccc(-c2csc(-c3ccccc3)n2)cc1)c1ccccc1 | inconclusive [inhibitor, single point] | 
36 | COc1ccccc1NC(=O)C1=C(C)Nc2c(C(=O)Nc3ccc(F)cc3)cnn2C1c1ccc(Cl)cc1 (centres undefined) | inconclusive [inhibitor, partial curve, poor fit] | 
37 | Cc1csc(NC(=O)CSc2nnc(-c3ccc(S(=O)(=O)N4CCCC4)cc3)o2)n1 |  | inactive: -6.2%
38 | CC(c1ccco1)N(C(=O)c1ccccc1NS(=O)(=O)c1cccc([N+](=O)[O-])c1)c1ccccn1 (centres undefined) | inconclusive [inhibitor, partial curve] | 
39 | c1ccc(Sc2ncnc3ccccc23)cc1 | inconclusive [inhibitor, single point] | 

From PubChem BioAssay AID624417 (National Center for Advancing Translational Sciences (NCATS), 2012)
